Test results: PubChem BioAssay AID1745853 (National Center for Advancing Translational Sciences (NCATS), 2022)
The other results are listed elsewhere or left out. Shown are side measurements of this screen, not its main read-out; they come without a call.

Key:
Experiment in all cases: Primary Screen for Target Class Profiling of Small Molecule Inhibitors of Methyltransferases
[1] = target: Glycine N-methyltransferase (Homo sapiens) (UniProt Q14749); conditions: purified enzyme, MTase-Glo SAH luminescence; measured here: GNMT inhibition; at 40 µM; stronger effect = lower value
Outline: (§1)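 Each enzyme was assayed with SAM and its substrate. SAH formation detected by MTase-Glo luminescence; single-point 40 uM screen[…].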

[2] = target: Guanidinoacetate N-methyltransferase (Homo sapiens) (UniProt Q14353); conditions: purified enzyme, MTase-Glo SAH luminescence; measured here: GAMT inhibition; at 40 µM; stronger effect = lower value
Outline: as §1

[3] = target: Histamine N-methyltransferase (Homo sapiens) (UniProt P50135); conditions: purified enzyme, MTase-Glo SAH luminescence; measured here: HNMT inhibition; at 40 µM; stronger effect = lower value
Outline: as §1

[4] = target: Nicotinamide N-methyltransferase (Homo sapiens) (UniProt P40261); conditions: purified enzyme, MTase-Glo SAH luminescence; measured here: NNMT inhibition; at 40 µM; stronger effect = lower value
Outline: as §1

[5] = target: Phenylethanolamine N-methyltransferase (Homo sapiens) (UniProt P11086); conditions: purified enzyme, MTase-Glo SAH luminescence; measured here: PNMT inhibition; at 40 µM; stronger effect = lower value
Outline: as §1
% is scaled to controls: 0 for no effect and ±100 for the full control effect.

SMILES | activity change, negative = inhibition [1] [%] | activity change, negative = inhibition [2] [%] | activity change, negative = inhibition [3] [%] | activity change, negative = inhibition [4] [%] | activity change, negative = inhibition [5] [%]
Cc1cnc(CNC(=O)c2c(=O)c3ccc(N4CCCN(C)CC4)nc3n3c2sc2ccccc23)cn1 | -40.7 | 9.45 | -5.7 | -6.7 | 2.18
CCc1ccc(CN2C(=O)c3ccc(-c4ccccc4)n3CC2(C)C(=O)NC2CCCCCC2)cc1 (configuration not stated) | 0.296 | 0.077 | -1.07 | -4.61 | -4.85
Cc1cc(C)c(CNC(=O)c2nc(-c3cccnc3)cc3[nH]ccc23)c(=O)[nH]1 | -45.8 | -19.6 | -20.9 | -26.6 | -26.2
CN(C)c1ccc(CNC(=O)c2cc3n(n2)CC(C)(C(=O)NCc2ccc(F)cc2)N(C)C3=O)cc1 (configuration not stated) | -3.65 | 2.11 | -8.22 | -4.74 | -0.283
Cn1c(=O)n(C)c2cc(S(=O)(=O)NCc3ccccc3Cl)ccc21 | 12.1 | 0 | 5.3 | -4.53 | -2.87
COc1cccc(CN2C(=O)c3cc4ccccc4n3CC2(C)C(=O)NC2CCCCCC2)c1 (configuration not stated) | -5.16 | 0 | -5.65 | -17.8 | -14.3
COc1ccc(C2NC(C(=O)O)Cc3c2[nH]c2ccccc32)cc1OC (configuration not stated) | -17.3 | 0.324 | 8.44 | -3.12 | 3.34
C=CC(C)(C)C12CC3C(=O)NC(Cc4cnc[nH]4)C(=O)N3C1Nc1ccccc12 (configuration not stated) | 5.18 | 2.13 | 7.19 | -11.4 | -10.6
CCOC(=O)N1CCC(N[C@@H]2CC[C@@H]2NC(=O)CCn2cncn2)CC1 | -1.52 | -4.4 | 0.024 | -8.14 | -3.62
C=C1C2CCC3CC2(CC(O)C2(O)C1CC(OC1OC(CO)C(O)C(O)C1O)C2(C)C)CC3(C)O (configuration not stated) | -0.025 | 1.88 | 9.12 | -9.57 | 1.69
NC(=O)COC[C@@H]1CN(Cc2ccco2)C[C@H]1c1ccncc1 | -9.41 | -11.9 | -7.82 | -14 | 5.71
COC[C@H]1NC(=O)CC[C@H]1C(=O)N1CCCc2ccccc21 | -4.71 | -2.11 | 1.13 | -5.61 | -0.163
CCC(=O)O[C@]1(C(=O)CCl)[C@@H](C)C[C@H]2[C@@H]3C[C@H](F)C4=CC(=O)C=C[C@]4(C)[C@@]3(F)[C@@H](O)C[C@@]21C | -2.12 | 2.69 | 8.72 | -22.5 | -2.68
Cc1ccc(CNC(=O)C2(C)Cn3cnc(C(=O)NCc4ccc(N(C)C)cc4)c3C(=O)N2C2CC2)cc1 (configuration not stated) | -6.85 | 0.736 | -1.36 | -1.44 | -5.03
CCc1cc2c(cc3n2CC(C)(C(=O)NC2CCCCC2)N(Cc2ccccc2)C3=O)s1 (configuration not stated) | -8.41 | 0.956 | -8.86 | -5.58 | -10.9
O=C1CN(Cc2ccccc2Cl)S(=O)(=O)c2ccccc2N1Cc1ccc(Cl)cc1 | 17.1 | 0.85 | 12.5 | 7.34 | 10.4
CC(C)C1CCC(C(=O)N[C@@H](Cc2ccccc2)C(=O)O)CC1 (some centres not stated) | -1.3 | – | 12.2 | – | –
CCCNC(=O)NCCn1c(C)cnc1-c1ccncc1 | -5.13 | -7.12 | -5.19 | -8.68 | -7.67
Cc1ccccc1NC(=O)CSc1nnc2n(CCCOC(C)C)c(=O)c3ccccc3n12 | -0.044 | 0 | 2.47 | 1.19 | 3.23
CCOC(=O)c1ccc2c(c1)C1C=CCC1C(c1ccccc1F)N2 (configuration not stated) | -15 | -0.517 | -4.79 | -9.61 | -11.9

SMILES | activity change, negative = inhibition [1] [%] | activity change, negative = inhibition [2] [%] | activity change, negative = inhibition [3] [%] | activity change, negative = inhibition [4] [%] | activity change, negative = inhibition [5] [%]
CC(C)CCn1c(=O)c2ccccc2n2c(CCC(=O)NCCCN3CCN(c4ccccc4F)CC3)nnc12 | -5.09 | 0.867 | 1.01 | 8.19 | 2.68
C/C=C/C1=CC2=C(CO1)C(=O)[C@](C)(O)[C@H](OC(=O)c1c(O)cc(OC)c(O)c1C)C2 | -0.901 | -6.13 | 1.21 | -16.2 | 1.3
CCCn1c(=O)c2ccc(C(=O)NC(C)CC)cc2n2c(=O)n(CC(=O)NC3CCCCC3)nc12 (configuration not stated) | 3.5 | 0 | 7.04 | 3 | -2.69
C#CCN(C)CC[C@@H]1CC[C@H](O)[C@@H](C(=O)NC2CCCCC2)O1 | -3.66 | -7.92 | -2.75 | -11.7 | -4.8
CC(C)(C)c1cc2n(n1)CC(C)(C(=O)NC1CCCCCC1)N(Cc1ccc(F)cc1)C2=O (configuration not stated) | 1.75 | 0 | -0.09 | -1.94 | 0.574
CCc1ccc(CNC(=O)Cn2c(C)cc3nc4n(c(=O)c32)CCCC4)cc1 | -1.53 | 0.694 | 2.43 | 0.378 | -8.35
C=CCCC(CN1CCOCC1)Oc1ccc(-c2ccccc2)nn1 (configuration not stated) | -1.17 | -1.42 | 1.49 | -2.57 | 0.077
CC1(C(=O)NC2CCCCC2)Cn2c(cc3sccc32)C(=O)N1CCc1ccccc1 (configuration not stated) | -5.87 | 2.14 | -5.11 | -6.46 | -2.21
OC[C@H]1O[C@@H](n2cnc3cncnc32)[C@H](O)[C@@H]1O | -83.9 | -80.6 | -80.2 | -75.1 | -85.8
CCCn1c(=O)c2cc(Cl)ccc2n2c(=O)n(CC(=O)c3ccc(OCC)cc3)nc12 | 6.33 | 0.561 | 4.13 | 8.65 | 5
Cc1cccc(Cn2nc3n(CCC(C)C)c(=O)c4ccc(C(=O)NCC(C)C)cc4n3c2=O)c1 | 7.01 | 0 | 7.32 | 2.15 | 6.34
O=C(Nc1ncc(-c2cc(C(F)F)nn2-c2c(Cl)cccc2Cl)s1)C1CC1 | -5.29 | 5.73 | 2.12 | -34.3 | 1.99
CCN(CC)C(=O)N1CCC(c2noc(-c3ccccc3)n2)C1 (configuration not stated) | -5.37 | -8.88 | -4.04 | -17.4 | 10.4
CC(=O)NC1CCN(Cc2cn(-c3ccc(C)cc3)nc2-c2cccc(C)c2)C1 (configuration not stated) | -9.57 | -7.56 | -5.25 | -11.5 | -7.42
Cc1noc([C@@H]2C[C@H](NC(=O)C3CCCCC3)CN2C)n1 | -3.04 | -6.82 | -1.44 | -5.43 | 4.04
O=C(Cn1ccc2cc(S(=O)(=O)N3CCCCC3)ccc21)NCc1ccccc1 | -0.602 | 0 | 0.339 | -3.65 | 0.435
CC(=O)C(C)=O | -3.66 | 5.13 | 1.7 | -3.31 | 12.9
COc1ccc(C(=O)Nc2ccc3c(c2)C(=O)N(C)C2=NCCN23)cc1OC | -21.3 | -4.62 | 0.864 | -10.1 | -6.5
Cc1ncc2n1C(=O)N(C1CCN(Cc3ccncc3)CC1)C2 | -6.62 | -7.24 | -4.28 | -13.9 | -8.12
